Experimental data published in PubChem BioAssay AID488969 (Vanderbilt High Throughput Screening Facility, 2010).
Whole data set: some 110,000 compounds, median “z-score” near -0.1, cut for the highest 2% near 2. The list shows a part of the results.

target: Metabotropic glutamate receptor 8 (Rattus norvegicus) (UniProt P70579); test: rat mGluR8 modulators via GIRK flux, primary screen, cell-based, thallium flux, HTS (AID 488969); conditions: HEK293 rat mGluR8, GIRK (G protein-gated inwardly rectifying potassium channel) thallium flux, FluoZin2; at 10 µM; stronger effect = higher value; submaximal glutamate (EC20) added with thallium
Chain of UniProt P70579 (P70579 whole entry, looked up): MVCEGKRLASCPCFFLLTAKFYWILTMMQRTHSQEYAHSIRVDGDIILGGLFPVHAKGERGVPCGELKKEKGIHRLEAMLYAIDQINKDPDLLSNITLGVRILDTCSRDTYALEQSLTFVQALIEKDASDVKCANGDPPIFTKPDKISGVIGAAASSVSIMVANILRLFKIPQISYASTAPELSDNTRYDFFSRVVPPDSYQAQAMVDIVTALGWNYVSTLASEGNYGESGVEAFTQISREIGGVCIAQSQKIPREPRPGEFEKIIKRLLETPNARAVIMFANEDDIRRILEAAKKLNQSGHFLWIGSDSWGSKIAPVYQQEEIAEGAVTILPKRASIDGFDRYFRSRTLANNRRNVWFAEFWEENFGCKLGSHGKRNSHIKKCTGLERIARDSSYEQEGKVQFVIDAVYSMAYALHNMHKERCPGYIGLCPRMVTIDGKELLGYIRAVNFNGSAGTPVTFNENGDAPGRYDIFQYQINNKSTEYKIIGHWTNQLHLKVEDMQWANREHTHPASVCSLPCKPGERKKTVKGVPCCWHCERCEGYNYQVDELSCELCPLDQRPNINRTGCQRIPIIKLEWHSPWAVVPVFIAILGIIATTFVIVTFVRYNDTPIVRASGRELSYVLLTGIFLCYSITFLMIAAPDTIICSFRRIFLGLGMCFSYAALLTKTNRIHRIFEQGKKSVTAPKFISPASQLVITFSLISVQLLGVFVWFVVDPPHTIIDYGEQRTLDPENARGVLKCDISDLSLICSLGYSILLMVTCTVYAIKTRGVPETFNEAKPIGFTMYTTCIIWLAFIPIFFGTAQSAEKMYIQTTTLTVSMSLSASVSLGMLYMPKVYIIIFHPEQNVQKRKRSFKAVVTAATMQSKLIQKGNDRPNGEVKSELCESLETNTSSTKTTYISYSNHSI

**Q.** `CCOC(=O)c1ccc2c(c1)n(CC)c(/C=C/Nc1ccccc1)[n+]2CC` was tested. Which z-score did it give?
**A.** 0.832

**Q.** With `Cc1ccc(NC(=O)CO/N=C/c2ccc(N(C)C)cc2)cc1` as the compound, how does the z-score read?
**A.** -0.183

**Q.** How did the z-score turn out when `COc1ccc(C(=O)CC(c2ccccc2)C2CCCCC2=O)cc1` (stereo not given) was run?
**A.** -0.449

**Q.** `O=C(CC12CC3CC(CC(C3)C1)C2)NC(=S)NCc1ccccc1` was tested. Which z-score did it give?
**A.** -0.0656

**Q.** With `COCCCn1c(-c2ccc(OC)cc2)nc2nc3ccccc3nc21` as the compound, how does the z-score read?
**A.** -0.00158

**Q.** `COC(=O)c1sc2cc(C(F)(F)F)cnc2c1-c1ccccc1` was tested. Which z-score did it give?
**A.** -0.197

**Q.** `COc1ccc(CCNC(=O)c2cc(-c3cc(C)c(C)cc3O)n[nH]2)cc1OC` was tested. Which z-score did it give?
**A.** 0.06

**Q.** `COc1ccc2c3c(cccc13)N(C)N=C2C` was tested. Which z-score did it give?
**A.** -0.228

**Q.** With `O=C(CSc1ccc(Cl)cc1)Nc1ccccc1Oc1ccccc1` as the compound, how does the z-score read?
**A.** -0.0915

**Q.** For `CCC(C)NC(=O)CS(=O)Cc1nc(-c2cccc(C)c2)oc1C` (stereo not given), which z-score is on record?
**A.** -0.207

**Q.** Which z-score does the source give for `Cc1ccc2c(c1)c(CC(=O)Nc1ccc(F)cc1)c(C(=O)O)n2C` here?
**A.** 0.784

**Q.** How did the z-score turn out when `Cc1ccc(N2CCN(C(=O)N3CCCC3)CC2)cc1Cl` was run?
**A.** 0.581

**Q.** For `C=C(C)C1CC=C(C)/C(=N/NC(=O)c2ccc(NC(=O)c3cccc(C)c3)cc2)C1` (stereo not given), which z-score is on record?
**A.** 0.0945

**Q.** How did the z-score turn out when `c1ccc(C2CCC3(CC2)Oc2ccccc2C2CC(c4cccnc4)=NN23)cc1` (stereo not given) was run?
**A.** -0.102

**Q.** How did the z-score turn out when `C=C(Cl)COC(=O)[C@H]1C2C=CC(C2)C1C(=O)O` (stereo not given in full) was run?
**A.** 0.518

**Q.** How did the z-score turn out when `O=C(Nc1nccs1)c1ccc(CSc2nnnn2-c2ccccc2)cc1` was run?
**A.** 0.679

**Q.** With `COc1cccc(Oc2cnc(N)nc2-c2ccc(OC)cc2O)c1` as the compound, how does the z-score read?
**A.** -0.837

**Q.** `O=P(COCCOCP(=O)(c1ccccc1)c1ccccc1)(c1ccccc1)c1ccccc1` was tested. Which z-score did it give?
**A.** 0.00375

**Q.** `N#Cc1c(-c2ccccc2Cl)cc(-c2ccccc2)nc1Br` was tested. Which z-score did it give?
**A.** -0.186

**Q.** Which z-score does the source give for `Cc1ccccc1-c1nc(CN2CCC(C(=O)N3CCN(c4ccccn4)CC3)CC2)c(C)o1` here?
**A.** -1.13

**Q.** For `CCOC(=O)CC(NS(=O)(=O)Cc1ccccc1)c1ccc(C)cc1` (stereo not given), which z-score is on record?
**A.** -0.0413

**Q.** For `CN(Cc1nc2ccccc2n1C)S(=O)(=O)c1ccc(Cl)cc1`, which z-score is on record?
**A.** 0.959

**Q.** With `CC(CCc1ccccc1)NC(=O)CN1CCN(Cc2ccc(Cl)cc2)C1=O` (stereo not given) as the compound, how does the z-score read?
**A.** -0.793

**Q.** `CCc1ccc(OC)c(S(=O)(=O)Nc2ccccc2C)c1` was tested. Which z-score did it give?
**A.** 0.0568

**Q.** For `COc1ccc(NC(=O)N(Cc2cc3cc(OC)ccc3[nH]c2=O)CC2CCCO2)cc1` (stereo not given), which z-score is on record?
**A.** -0.553

**Q.** With `O=C(Nc1ccc(CN2CCCCC2)cc1)c1ccc(Br)o1` as the compound, how does the z-score read?
**A.** 0.356

**Q.** How did the z-score turn out when `O=C(Cn1c(-c2ccccc2)noc1=O)Nc1ccc(N2CCCCCC2)cc1` was run?
**A.** 0.171

**Q.** With `Nn1c(SCC(=O)N2CCOCC2)nnc1-c1ccco1` as the compound, how does the z-score read?
**A.** 0.245

**Q.** For `CCCC(=O)NC(=S)Nc1ccc(N2CCOCC2)c(Cl)c1`, which z-score is on record?
**A.** 0.242

**Q.** Which z-score does the source give for `CCC(C)NS(=O)(=O)c1ccc(NC(=O)c2c(-c3ccccc3)noc2C)cc1` (stereo not given) here?
**A.** -0.154

**Q.** With `CCN(CC)S(=O)(=O)c1cc(C(=O)NC2=NCCS2)ccc1Cl` as the compound, how does the z-score read?
**A.** -0.273

**Q.** `C=CCOc1c(Br)cc(/C=N\n2nnnc2N)cc1OC` was tested. Which z-score did it give?
**A.** 0.0244

**Q.** Which z-score does the source give for `COc1ccc(C(=O)NC(=S)NC(C)(C)C)cc1Br` here?
**A.** 0.436

**Q.** Which z-score does the source give for `COc1cc2c(cc1NC(=O)c1cc(-c3ccccn3)nc3ccccc13)oc1ccccc12` here?
**A.** 0.43

**Q.** How did the z-score turn out when `COc1cccc(C(=O)Nc2nc(-c3ccc4c(c3)OCO4)cs2)c1` was run?
**A.** 0.336

**Q.** With `Cc1ccc(S(=O)(=O)NCCOc2nc(N3CCOCC3)nc(N3CCOCC3)n2)cc1` as the compound, how does the z-score read?
**A.** -0.139

**Q.** With `C=C(C)C1Cc2nc(N)nc(C)c2C1` (stereo not given) as the compound, how does the z-score read?
**A.** 0.304

**Q.** How did the z-score turn out when `COc1ccc(CC(=O)Nc2cccc(/C(C)=N/NC(=O)c3cccc([N+](=O)[O-])c3)c2)cc1` was run?
**A.** -0.184

**Q.** `COc1cc(-c2nnc(COC(=O)C3c4ccccc4Oc4ccccc43)o2)cc(OC)c1OC` was tested. Which z-score did it give?
**A.** -1.76

**Q.** How did the z-score turn out when `CC(C)(C)c1cc(CN2CCN(CCO)CC2)cc(C(C)(C)C)c1O` was run?
**A.** 0.154

**Q.** `COCCNC(=O)C(=O)N/N=C(\C)CC(=O)Nc1ccc(Cl)cc1Cl` was tested. Which z-score did it give?
**A.** -0.256

**Q.** `Cc1nc2ccc(N3C(=O)CCC3=O)cc2[nH]1` was tested. Which z-score did it give?
**A.** -0.234

**Q.** How did the z-score turn out when `C=CCn1c(-c2ccc(OC)cc2)nc2nc3ccccc3nc21` was run?
**A.** -0.744

**Q.** For `CC(C)C(C(=O)NCC1CCCO1)N(Cc1ccco1)C(=O)CNS(=O)(=O)c1ccccc1` (stereo not given), which z-score is on record?
**A.** -0.174

**Q.** For `N#Cc1c(N)sc2c1CCN(CCc1ccccc1)C2`, which z-score is on record?
**A.** 0.208

**Q.** For `N#CC1=C(S)N=C(N)C(c2nc(-c3ccccc3)cs2)C12CCCC2` (stereo not given), which z-score is on record?
**A.** 0.271

**Q.** Which z-score does the source give for `Cc1cnc(C(=O)OCC(=O)Nc2ccc(Cl)cc2Cl)cn1` here?
**A.** -1.46

**Q.** For `O=C(Cn1cc2c(n1)CCCC2)NCC1CCCO1` (stereo not given), which z-score is on record?
**A.** 0.0655

**Q.** Which z-score does the source give for `N=C1/C(=C/c2cccn2CCOc2ccccc2)C(=O)N=C2SC=C(c3ccccc3)N12` here?
**A.** -0.0459

**Q.** For `COc1cc2c(cc1OC)CN(C(=O)COc1ccc(C)c(C)c1)CC2`, which z-score is on record?
**A.** -0.0555

**Q.** With `CS(=O)(=O)c1cnc(-c2ccccc2)nc1Oc1ccc(Cl)cc1` as the compound, how does the z-score read?
**A.** 0.0557

**Q.** With `CCSc1nnc(NC(=O)CCNS(=O)(=O)c2cc(Br)cnc2N)s1` as the compound, how does the z-score read?
**A.** -0.277

**Q.** How did the z-score turn out when `O=C(CSc1nc(-c2ccccc2)cs1)N1CCc2ccccc21` was run?
**A.** 0.269

**Q.** For `CCOP(=O)(OCC)C(C#N)=C1SCN(c2ccc(Cl)cc2)CS1`, which z-score is on record?
**A.** -0.218

**Q.** For `Cc1cccc(Cn2cnc3ccccc32)c1`, which z-score is on record?
**A.** -0.29

**Q.** With `CC[n+]1c(/C=C/Nc2ccccc2)oc2ccccc21` as the compound, how does the z-score read?
**A.** 1.06

**Q.** `Cc1cccc(NC(=O)NCc2ccc3c(c2)cc(C)n3C)c1` was tested. Which z-score did it give?
**A.** -0.184

**Q.** Which z-score does the source give for `COc1ccccc1C(=O)N/C(=C\c1ccc(Br)cc1)C(=O)NCCO` here?
**A.** 0.122

**Q.** With `Cc1cc(NCc2ccccc2)nc(N2CCOCC2)n1` as the compound, how does the z-score read?
**A.** -0.574

**Q.** `O=[N+]([O-])c1nn(-c2ccc3c(c2)OCCO3)n(O)c1=NC1CCCC1` was tested. Which z-score did it give?
**A.** -0.842

**Q.** How did the z-score turn out when `Cc1cccc(N2CCN(C(c3ccc(N(C)C)cc3)c3nnnn3C(C)(C)C)CC2)c1C` (stereo not given) was run?
**A.** -0.0501

**Q.** How did the z-score turn out when `CCOc1ccc(/C=N/NC(=O)c2ccc(Cn3cc([N+](=O)[O-])cn3)o2)cc1` was run?
**A.** 0.0631

**Q.** Which z-score does the source give for `Cc1cccc(Cc2cnc(NC(=O)c3ccc(C)o3)s2)c1` here?
**A.** -0.0136

**Q.** Which z-score does the source give for `Cc1cc(C)cc(C(=O)N2CC(C)OC(C)C2)c1` (stereo not given) here?
**A.** -0.13

**Q.** For `COc1ccc(CC(=O)Nc2c3c(nn2-c2cccc(C)c2C)CS(=O)C3)cc1OC` (stereo not given), which z-score is on record?
**A.** 0.359

**Q.** Which z-score does the source give for `O=C(CN1C(=O)c2ccccc2C1=O)Nc1ccccc1C(=O)NC1CCCCCC1` here?
**A.** -0.0277

**Q.** With `Cc1cccc(CCNC(=O)C2CCN(S(=O)(=O)c3c(C)noc3C)CC2)c1` as the compound, how does the z-score read?
**A.** 1.08

**Q.** `O=C(Nc1nc(COc2ccccc2)cs1)C1CCC1` was tested. Which z-score did it give?
**A.** -0.102

**Q.** For `CCOC(=O)c1oc2c(CN3CCCCC3C)c(O)ccc2c(=O)c1-c1ccc(OC)c(OC)c1` (stereo not given), which z-score is on record?
**A.** -0.0625

**Q.** `CCc1cccc(NC(=O)CN(c2ccc(OC)cc2)S(=O)(=O)c2c(C)n[nH]c2C)c1` was tested. Which z-score did it give?
**A.** 0.317
